# Hit rate of the full screen: of about 310,000 compounds, about 2,200 (0.71%) showed an effect of 50% or more. The effect is printed as a negative number. The list shows a part of the results.
# Target: human ether-à-go-go-related gene (hERG) potassium channel (human, UniProt Q12809)
# Assay: primary screen, population patch clamp on CHO cells stably expressing hERG
# Chain of human ether-à-go-go-related gene (hERG) potassium channel (Q12809 whole entry, looked up): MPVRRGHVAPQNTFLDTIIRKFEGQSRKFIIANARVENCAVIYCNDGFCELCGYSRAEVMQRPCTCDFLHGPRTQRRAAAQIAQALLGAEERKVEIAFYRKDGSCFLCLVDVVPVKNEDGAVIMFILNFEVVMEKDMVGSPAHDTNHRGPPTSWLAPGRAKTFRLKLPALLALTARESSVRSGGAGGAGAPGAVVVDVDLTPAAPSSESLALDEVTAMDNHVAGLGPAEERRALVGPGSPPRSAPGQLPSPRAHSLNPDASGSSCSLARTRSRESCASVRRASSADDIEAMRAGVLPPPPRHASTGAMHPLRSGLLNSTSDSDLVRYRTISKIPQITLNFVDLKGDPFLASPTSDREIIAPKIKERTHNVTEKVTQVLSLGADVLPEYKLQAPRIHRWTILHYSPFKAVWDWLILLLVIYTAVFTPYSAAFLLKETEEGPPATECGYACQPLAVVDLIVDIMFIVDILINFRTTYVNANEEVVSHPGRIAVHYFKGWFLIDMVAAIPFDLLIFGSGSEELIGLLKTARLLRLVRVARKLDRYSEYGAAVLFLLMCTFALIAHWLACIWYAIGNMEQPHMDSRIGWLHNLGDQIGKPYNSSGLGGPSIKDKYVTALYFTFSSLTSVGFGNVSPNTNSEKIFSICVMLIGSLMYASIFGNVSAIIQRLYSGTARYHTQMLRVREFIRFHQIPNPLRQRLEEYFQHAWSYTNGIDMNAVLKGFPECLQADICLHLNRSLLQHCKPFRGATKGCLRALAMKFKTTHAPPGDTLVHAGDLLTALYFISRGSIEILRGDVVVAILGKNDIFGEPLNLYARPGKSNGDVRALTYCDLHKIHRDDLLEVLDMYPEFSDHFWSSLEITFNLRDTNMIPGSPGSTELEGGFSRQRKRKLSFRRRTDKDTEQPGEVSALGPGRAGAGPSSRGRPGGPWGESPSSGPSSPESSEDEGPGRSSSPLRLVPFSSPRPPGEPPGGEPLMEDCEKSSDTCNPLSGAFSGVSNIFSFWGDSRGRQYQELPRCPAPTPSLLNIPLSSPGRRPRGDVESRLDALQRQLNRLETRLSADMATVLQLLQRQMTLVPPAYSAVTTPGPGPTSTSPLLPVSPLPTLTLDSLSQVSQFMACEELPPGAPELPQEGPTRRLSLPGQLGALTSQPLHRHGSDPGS
row,Compound,"hERG current change (%, negative = inhibition) at 1uM"
1,Cc1ccccc1N(C(=O)c1snc(C(N)=O)c1N)C(C(=O)NCc1ccccc1)c1ccc(O)cc1 (centres unmarked),13.4%
2,CC1CC1C(=O)N1CCN(S(=O)(=O)c2cccc(F)c2)CC1 (centres unmarked),12.5%
3,Cc1ccc(C(=O)O)cc1Nc1ncnc2sc3c(c12)CCC3,13.6%
4,COC(=O)c1c(C)[nH]c(/C=N/Nc2ccccc2)c1C,9.59%
5,COc1ccc(CN2C(=O)c3oc4ccccc4c(=O)c3C2c2ccc(O)c(OC)c2)cc1 (centres unmarked),11%
6,CCOc1ncccc1C(=O)Nc1cc(S(=O)(=O)N2CCCCC2)ccc1C,5.65%
7,CCN(CC)c1ncc(C)c(=O)[nH]1,13.4%
8,CN(CCC#N)C(=O)c1cc2c(s1)-c1ccccc1SC2,13.8%
9,CC(C)CNC(=O)c1cc2nc3c(c(C(F)(F)F)n2n1)CCc1ccccc1-3,7.19%
10,CCc1ccc2c(c1)C(=O)c1ccccc1C2=O,9.46%
11,Cc1cccc(CSc2nnc([C@@H]3CCCN3C(=O)OC(C)(C)C)o2)c1,12.2%
12,Cc1nn(-c2ccccc2)c(N2CCCC2)c1/C=N/NC(=O)c1cc(-c2cccnc2)nc2ccccc12,10.6%
13,CSCCC(C(=O)N1CC2(C)CC1CC(C)(C)C2)N1C(=O)c2ccccc2C1=O (centres unmarked),6.74%
14,C/C(CC(=O)Nc1ccc(Br)cc1)=N\NC(=O)c1cccc(O)c1,15.6%
15,CC(C)Cc1ccc(CN2CCCC(NC(=O)CCN3CCCO3)C2)cc1 (centres unmarked),-17.3%
16,Cc1ccc(C(=O)NCCNC(=O)c2ccco2)cn1,9.25%
17,CCC(=O)N(CCC(Cc1ccccc1)c1ccco1)Cc1ccco1 (centres unmarked),17.2%
18,Cc1ncc(CN2CCCC(C(=O)c3cccc(Cl)c3)C2)s1 (centres unmarked),6.69%
19,O=C(NCc1ccco1)Nc1ccc(OC(F)(F)F)cc1,3.97%
20,CCC(=O)Nc1cccc(NC(=O)CN2CCN(c3ccccc3OC)CC2)c1,10.1%
21,COc1ccc(/C=C(\C#N)C(=O)OCC(=O)Nc2c(C)cccc2C)cc1,7.38%
22,O=C(CN1C(=O)N/C(=C\c2ccccc2OCc2ccc(C(=O)O)cc2)C1=O)Nc1ccccc1F,1.95%
23,CC(C)(C)NC(=O)NC(=O)CN1CCN(C(c2ccccc2)c2ccccc2)CC1,4.05%

row,Compound,"hERG current change (%, negative = inhibition) at 1uM"
1,CCS(=O)(=O)c1nc(S(=O)(=O)c2ccc(C)cc2)c(N2CCCC(C)C2)s1 (centres unmarked),13.9%
2,CCOCCCNC(=S)NCCCNc1nc2ccc(C)cc2cc1C#N,8%
3,CCOC(=O)N1CCN(C(=O)CSc2nc(=O)n3ccc(C)cc3n2)CC1,10.2%
4,O=C(CO/N=C1\CCCc2nonc21)Nc1ccccc1Cl,6.66%
5,CN(C)CC#CCOCCOCCC#N,19.2%
6,Cc1ccc2sc(N(CCCN(C)C)C(=O)c3ccc(Br)s3)nc2c1C.Cl,-35.1%
7,CC(C)C1CC(CCN)(Cc2ccccc2)CCO1.Cl (centres unmarked),8.49%
8,Cc1ccccc1-n1c(=O)cc(N2CCC3(CC2)OCCO3)[nH]c1=O,13.6%
9,Cc1ccccc1C1CC(=O)NC2=C1C(=O)CCC2 (centres unmarked),20.6%
10,CCOC(=O)N1CCN(C(=O)C2CCN(CC3CCCCC3)CC2)CC1.O=C(O)C(=O)O,14.8%
11,CCc1nnc(NC(=O)CSc2nnc(-c3c[nH]c4ccccc34)n2CC)s1,-17.4%
12,CN(C)/C(=N\OC(=O)c1ccccc1)c1nonc1N,9.09%
13,Cc1ccccc1NS(=O)(=O)c1cc(C(=O)Nc2cccc([N+](=O)[O-])c2)ccc1C,5.72%
14,COc1ccc(-c2noc(CCC(=O)NC3CCCC3)n2)cc1,11.1%
15,C=CCNc1nc(-c2ccc(Cl)cc2)cs1,11.1%
16,Cc1nnc(SCc2cc(=O)[nH]c(/N=C(\N)Nc3ccccc3)n2)s1,1.55%
17,Cc1cc(C)c2oc(C(=O)N3CCN(C)CC3)cc(=O)c2c1,19.1%
18,N/C(=C\C(=O)c1cc(Cl)ccc1O)C(Cl)(Cl)Cl,6.83%
19,COc1ccc(C(=O)NC(=S)N2CCN(c3ccccc3OC)CC2)cc1,-2.48%
20,CC(C)(C)c1ncc(S(=O)(=O)c2ccc(C(F)(F)F)cn2)c(N)n1,2.14%
21,CC1CC(C)CN(CCCNC(=O)c2cc3c(s2)-c2ccccc2OC3)C1 (centres unmarked),-5.87%
22,CCc1ccccc1SCc1noc(C(=O)NCC2CCCO2)c1C(=O)O (centres unmarked),14.3%
23,CC(O)c1ccc(-n2cnnn2)cc1 (centres unmarked),13.3%

row,Compound,"hERG current change (%, negative = inhibition) at 1uM"
1,CCOC(=O)N1CCN(C(=O)CSc2nnc(-c3cc(OC)cc(OC)c3)o2)CC1,6.37%
2,COc1ccc(/C(CC2(O)C(=O)Nc3ccccc32)=N\O)cc1 (centres unmarked),12.7%
3,CC1(C)Oc2ccc(C(=O)NC3CCCCC3)cc2N(CC#N)C1=O,18%
4,OCC[C@@H]1C[C@@H](O)[C@H](O)[C@@]2(Cc3ccccc3O2)O1,8.44%
5,Cc1onc(-c2ccccc2)c1C(=O)NCc1cccnc1,4.06%
6,C=CCNC(=O)C1CC2Cn3c(nc4ccccc43)C2N1C (centres unmarked),2.65%
7,COc1cccc(/C=N/NC(=O)CC(C)O)c1OC/C=C/c1ccccc1 (centres unmarked),11.9%
8,COc1ccc(S(=O)(=O)Nc2cccc(S(=O)(=O)N3CCCC3)c2)cc1OC,-5.99%
9,O=C(c1ccc(CS(=O)(=O)c2ccc(Br)cc2)o1)N1CCCC1,-9.31%
10,O=C(CCCc1ccccc1)Nc1cccc(C(=O)O)c1,14.5%
11,COc1ccc(OC)c(N2C(=O)NC(=O)/C(=C\c3ccc([N+](=O)[O-])s3)C2=O)c1,17.4%
12,O=C(O)c1c(Cl)c(Cl)c(Cl)c(Cl)c1C(=O)N1CCCCCC1,16.4%
13,CCn1c(SCC(=O)Nc2cc(OC)ccc2OC)nnc1C1CCCCC1,4.98%
14,O=C(Nc1ccccc1N1CCCCC1)c1ccc(Cl)c([N+](=O)[O-])c1,16.1%
15,Cc1ccc(NC(=O)Cn2nc(C)c([N+](=O)[O-])c2C)cc1C,1.3%
16,O=c1c(-c2ccccc2)c(O)cc(-c2ccncc2)n1-c1ccc(Cl)cc1,11.7%
17,C=CCn1c(SCC(=O)c2ccc(O)c(O)c2)nnc1-c1cccc(Cl)c1,11.9%
18,CCCCC1=CC2=CC(=O)C(C)(OC(=O)CC)C(=O)C2=CN1C(CO)CO (centres unmarked),11%
19,CCN(CC)NC(=O)Nc1ccccc1,17.5%
20,c1ccc(OCCSc2ncnc3nc[nH]c23)cc1,2.64%
21,O.O=C(CCc1ccc(O)cc1)c1c(O)cc(O)cc1O[C@@H]1O[C@H](CO)[C@@H](O)[C@H](O)[C@H]1O,5.59%
22,Cc1nn(C)cc1C1C(C#N)=C(N)N(c2ccc(F)c([N+](=O)[O-])c2)C2=C1C(=O)CCC2 (centres unmarked),12.3%
23,COc1ccccc1C(=O)Nc1ccc(C(=O)Nc2ccccc2C(=O)O)cc1,15.2%

row,Compound,"hERG current change (%, negative = inhibition) at 1uM"
1,O=C(NCCc1ccc(Cl)cc1)c1cc(=O)[nH]c2ccccc12,10.9%
2,O=C(O)c1ccc(Nc2ccc([N+](=O)[O-])c3nonc23)cc1,15.5%
3,CC1(C)CC(=O)C(C=Nc2ccc(O)cc2)=C(O)C1,8.57%
4,CC1(C)S[C@@H]2[C@H](NC(=O)Cc3ccccc3)C(=O)N2[C@H]1C(=O)[O-].[K+],9.11%
5,NC(=O)CSc1nnnn1-c1ccc(OC(F)(F)F)cc1,-8.07%
6,CCN(CCO)Cc1cc(=O)oc2c(C)c(C)ccc12,7.31%
7,CSCCC(NS(=O)(=O)c1ccccc1F)C(=O)Nc1cccc(C)n1 (centres unmarked),8.96%
8,CCCCN(C(=O)c1cc(S(=O)(=O)N2CCCCCC2)ccc1OC)c1ccccc1,-1.19%
9,CC1(C)CC(=O)c2sc(NC(=O)c3ccccc3)nc2C1,16.4%
10,CN(CC(O)COc1ccc2ccccc2c1)C1CCCCC1.Cl (centres unmarked),-5.03%
11,O=C(O)CSCC(=O)Nc1ccc(Cl)cc1C(F)(F)F,4.34%
12,COc1ccc(CC(=O)OCC(=O)NCCc2ccccc2)cc1OC,7.46%
13,CCCn1nnc(NC(=O)c2cccc(OCC(C)C)c2)n1,8.53%
14,Cc1nn(CC(=O)Nc2cc(S(=O)(=O)N(C)C)ccc2Cl)c(C)c1[N+](=O)[O-],3.62%
15,Cc1ccc(NC(=O)c2ccc(S(=O)(=O)N3CCOCC3)cc2)cc1,15.3%
16,CCc1ccc(NC(=O)CCC(=O)Nc2nnc(C(C)C)s2)cc1,15.8%
17,O=C1/C(=C/c2cccc(Cl)c2)CSc2sccc21,16%
18,NS(=O)(=O)c1ccc(CNC(=O)c2cc(=O)[nH]c3ccccc23)cc1,11.5%
19,CCOC(=O)N1CCN(c2c(NCCCN(C)c3ccccc3)c(=O)c2=O)CC1,9.53%
20,COC(=O)c1ccc2c(c1)C(C)(C)C(/C=C/c1ccccc1O)=[N+]2C.[I-],-7.78%

# — article PMC4336329 (PLoS ONE, 2015)
